Data on four molecules can be found in patent US12286661B2, “Methods for making high intensity sweeteners” (Firmenich Incorporated, priority 2018, dated 2025).

First the molecules themselves.
B1: SEQ ID NO 854: fusion protein having cucurbitadienol synthase activity (protein)
chain: MWRLKVGKESVGEKEEKWIKSISNHLGRQVWEFCSGENENDDDEAIAVANNSASKFENARNHFRNNRFHRKQSSDLFLAIQCEKEIIRNGAKNEGTTKVKEGEDVKKEAVKNTLERALSFYSAVQTSDGNWASDLGGPMFLLPGLVIALYVTGVLNSVLSKHHRQEMCRYIYNHQNEDGGWGLHIEGSSTMFGSALNYVALRLLGEAADGGEHGAMTKARSWILERGGATAITSWGKLWLSVLGVYEWSGNNPLPPEFWLLPYSLPFHPGRMWCHCRMVYLPMSYLYGKRFVGPITPIVLSLRKELYTIPYHEIDWNRSRNTCAKEDLYYPHPKMQDILWGSIYHVYEPLFSGWPGKRLREKAMKIAMEHIHYEDENSRYICLGPVNKVLNMLCCWVEDPYSDAFKFHLQRIPDYLWLAEDGMRMQGYNGSQLWDTAFSIQAIISTKLIDTFGPTLRKAHHFVKHSQIQEDCPGDPNVWFRHIHKGAWPFSTRDHGWLISDCTAEGLKASLMLSKLPSKIVGEPLEKNRLCDAVNVLLSLQNENGGFASYELTRSYPWLELINPAETFGDIVIDYSYVECTSATMEALALFKKLHPGHRTKEIDAAIAKAANFLENMQKTDGSWYGCWGVCFTYAGWFGIKGLVAAGRTYNNCVAIRKACNFLLSKELPGGGWGESYLSCQNKVYTNLEGNKPHLVNTAWVMMALIEAGQGERDPAPLHRAARLLINSQLESGDFPQQEIMGVFNKNCMITYAAYRNIFPIWALGEYSHRVLDMGSAAPGSGSGSGMTELDYQGTAEAASTSYSRNQTDLKPFPSAGSASSSIKTTEPVKDHRRRRSSSIISHVEPETFEDENDQQLLPNMNATWVDQRGAWIIHVVIIILLKLFYNLFPGVTTEWSWTLTNMTYVIGSYVMFHLIKGTPFDFNGGAYDNLTMWEQIDDETLYTPSRKFLISVPIALFLVSTHYAHYDLKLFSWNCFLTTFGAVVPKLPVTHRLRISIPGITGRAQIS
modifications: SS2d-G11 Full Gene AA seq
B2: SEQ ID NO 862: fusion protein having cucurbitadienol synthase activity (protein)
chain: MWRLKVGKESVGEKEEKWIKSISNHLGRQVWEFCSGENENDDDEAIAVANNSASKFENARNHFRNNRFHRKQSSDLFLAIQCEKEIIRNGAKNEGTTKVKEGEDVKKEAVKNTLERALSFYSAVQTSDGNWASDLGGPMFLLPGLVIALYVTGVLNSVLSKHHRQEMCRYIYNHQNEDGGWGLHIEGSSTMFGSALNYVALRLLGEAADGGEHGAMTKARSWILERGGATAITSWGKLWLSVLGVYEWSGNNPLPPEFWLLPYSLPFHPGRMWCHCRMVYLPMSYLYGKRFVGPITPIVLSLRKELYTIPYHEIDWNRSRNTCAKEDLYYPHPKMQDILWGSIYHVYEPLFSGWPGKRLREKAMKIAMEHIHYEDENSRYICLGPVNKVLNMLCCWVEDPYSDAFKFHLQRIPDYLWLAEDGMRMQGYNGSQLWDTAFSIQAIISTKLIDTFGPTLRKAHHFVKHSQIQEDCPGDPNVWFRHIHKGAWPFSTRDHGWLISDCTAEGLKASLMLSKLPSKIVGEPLEKNRLCDAVNVLLSLQNENGGFASYELTRSYPWLELINPAETFGDIVIDYSYVECTSATMEALALFKKLHPGHRTKEIDAAIAKAANFLENMQKTDGSWYGCWGVCFTYAGWFGIKGLVAAGRTYNNCVAIRKACNFLLSKELPGGGWGESYLSCQNKVYTNLEGNKPHLVNTAWVMMALIEAGQGERDPAPLHRAARLLINSQLESGDFPQQEIMGVFNKNCMITYAAYRNIFPIWALGEYSHRVLDMGSAAPGSGSGSGMSRLPLKQFLADNPKKVLVLDGGQGTELENRGIKVANPVWSTIPFISESFWSDESSANRKIVKEMFNDFLNAGAEILMTTTYQTSYKSVSENTPIRTLSEYNNLLNRIVDFSRNCIGEDKYLIGCIGPWGAHICREFTGDYGAEPENIDFYQYFKPQLENFNKNDKLDLIGFETIPNIHELKAILSWDESILSRPFYIGLSVHEHGVLRDGTTMEEIAQVIKDLGDKINPNFSFLGINCVSFNQSPDILESLHQALPNMALLAYPNSGEVYDTEKKIWLPNSDKLNSWDTVVKQYISSGARIIGGCCRTSPKDIQEISAAVKKYT
modifications: SS4d-C7 Full Gene AA seq
B3: SEQ ID NO 859: fusion protein having cucurbitadienol synthase activity (protein)
chain: MWRLKVGKESVGEKEEKWIKSISNHLGRQVWEFCSGENENDDDEAIAVANNSASKFENARNHFRNNRFHRKQSSDLFLAIQCEKEIIRNGAKNEGTTKVKEGEDVKKEAVKNTLERALSFYSAVQTSDGNWASDLGGPMFLLPGLVIALYVTGVLNSVLSKHHRQEMCRYIYNHQNEDGGWGLHIEGSSTMFGSALNYVALRLLGEAADGGEHGAMTKARSWILERGGATAITSWGKLWLSVLGVYEWSGNNPLPPEFWLLPYSLPFHPGRMWCHCRMVYLPMSYLYGKRFVGPITPIVLSLRKELYTIPYHEIDWNRSRNTCAKEDLYYPHPKMQDILWGSIYHVYEPLFSGWPGKRLREKAMKIAMEHIHYEDENSRYICLGPVNKVLNMLCCWVEDPYSDAFKFHLQRIPDYLWLAEDGMRMQGYNGSQLWDTAFSIQAIISTKLIDTFGPTLRKAHHFVKHSQIQEDCPGDPNVWFRHIHKGAWPFSTRDHGWLISDCTAEGLKASLMLSKLPSKIVGEPLEKNRLCDAVNVLLSLQNENGGFASYELTRSYPWLELINPAETFGDIVIDYSYVECTSATMEALALFKKLHPGHRTKEIDAAIAKAANFLENMQKTDGSWYGCWGVCFTYAGWFGIKGLVAAGRTYNNCVAIRKACNFLLSKELPGGGWGESYLSCQNKVYTNLEGNKPHLVNTAWVMMALIEAGQGERDPAPLHRAARLLINSQLESGDFPQQEIMGVFNKNCMITYAAYRNIFPIWALGEYSHRVLDMGSAAPGSGSGSGMGKNVLLLGSGFVAQPVIDTLAANDDINVTVACRTLANAQALAKPSGSKAISLDVTDDSALDKVLADNDVVISLIPYTFHPNVVKSAIRTKTDVVTSSYISPALRELEPEIVKAGITVMNEIGLDPGIDHLYAVKTIDEVHRAGGKLKSFLSYCGGLPAPEDSDNPLGYKFSWSSRGVLLALRNSAKYWKDGKIETVSSEDLMATAKPYFIYPGYAFVCYPNRDSTLFKDLYHIPEAETVIRGTLRYQGFPEFVKALVDMGMLKDDANEIFSKPIAWNEALKQYLGAKSTSKEDLIASIDSKATWKDDEDRERILSGFAWLGLFSDAKITPRGNALDTLCARLEELMQYEDNERDMVVLQHKFGIEWADGTTETRTSTLVDYGKVGGYSSMAATVGYPVAIATKFVLDGTIKGPGLLAPYSPEINDPIMKELKDKYGIYLKEKTVA
modifications: SS4d-G5 Full Gene AA seq
B4: SEQ ID NO 851: fusion protein having cucurbitadienol synthase activity (protein)
chain: MWRLKVGKESVGEKEEKWIKSISNHLGRQVWEFCSGENENDDDEAIAVANNSASKFENARNHFRNNRFHRKQSSDLFLAIQCEKEIIRNGAKNEGTTKVKEGEDVKKEAVKNTLERALSFYSAVQTSDGNWASDLGGPMFLLPGLVIALYVTGVLNSVLSKHHRQEMCRYIYNHQNEDGGWGLHIEGSSTMFGSALNYVALRLLGEAADGGEHGAMTKARSWILERGGATAITSWGKLWLSVLGVYEWSGNNPLPPEFWLLPYSLPFHPGRMWCHCRMVYLPMSYLYGKRFVGPITPIVLSLRKELYTIPYHEIDWNRSRNTCAKEDLYYPHPKMQDILWGSIYHVYEPLFSGWPGKRLREKAMKIAMEHIHYEDENSRYICLGPVNKVLNMLCCWVEDPYSDAFKFHLQRIPDYLWLAEDGMRMQGYNGSQLWDTAFSIQAIISTKLIDTFGPTLRKAHHFVKHSQIQEDCPGDPNVWFRHIHKGAWPFSTRDHGWLISDCTAEGLKASLMLSKLPSKIVGEPLEKNRLCDAVNVLLSLQNENGGFASYELTRSYPWLELINPAETFGDIVIDYSYVECTSATMEALALFKKLHPGHRTKEIDAAIAKAANFLENMQKTDGSWYGCWGVCFTYAGWFGIKGLVAAGRTYNNCVAIRKACNFLLSKELPGGGWGESYLSCQNKVYTNLEGNKPHLVNTAWVMMALIEAGQGERDPAPLHRAARLLINSQLESGDFPQQEIMGVFNKNCMITYAAYRNIFPIWALGEYSHRVLDMGSAAPGSGSGSGMSASTTSLEEYQKTFLELGLECKALRFGSFKLNSGRQSPYFFNLSLFNSGKLLANLATAYATAIIQSELKFDVIFGPAYKGIPLAAIVCVKLAEIGGTKFQGIQYAFNRKKVKDHGEGGIIVGASLEDKRVLIIDDVMTAGTAINEAFEIISIAQGRVVGCIVALDRQEVIHESDPERTSATQSVSKRYNVPVLSIVSLTQVVQFMGNRLSPEQKSAIENYRKAYGI
modifications: SS2e-A7b Full Gene AA seq

The experiment deals with cucurbitadienol synthase activity. As to the kind of experiment: Cucurbitadienol synthase activities of fusion proteins in yeast strain with oxidosqualene boost, LCMS. The format is cell-based, S. cerevisiae. Conditions: average % activities over the average activities of the parent enzyme (Cucumis melo cucurbitadienol synthase). In short, it runs like this:
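Codon-optimized Cucumis melo cucurbitadienol synthase with N- or C-terminal fusion peptides, expressed in an oxidosqualene-boosted yeast strain. Product measured by LCMS (C4 column, positive ESI SIM at 427 and 409) relative to internal standard; activity scored as average % of parent enzyme (n=8).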
With B1, the “Activity (as compared to the parent)” value worked out at 135%.

In the case of B2, the “Activity (as compared to the parent)” value was 102%.

With B3, the “Activity (as compared to the parent)” value was determined as 105%.

Regarding B4, the “Activity (as compared to the parent)” value came out at 142%.
